Consider 41 compounds from ChEMBL document CHEMBL4888484, “Replenishing the malaria drug discovery pipeline: Screening and hit evaluation of the MMV Hit Generation Library 1 (HGL1) against asexual blood stage Plasmodium falciparum ,using a nano luciferase reporter read-out” (2022).

By % Inhibition is commonly meant the change of the read-out against control, counted positive when it falls.

About 540 (0.36%) of roughly 150,000 compounds showed an effect of 50% or more. The list shows a part of the results.

The test system of this assay is Plasmodium falciparum. Put plainly: Primary screen in NF54 nanoGlo assay, in single point, at 2uM, 72h; a lower Z score goes with more inhibition. Format: functional, Erythrocyte. The conditions noted are these: timepoint 72 hour.
As for `CC1CCC(C)N1C(C)C(=O)N(C)CCc1ccc(F)cc1` (configuration not stated), the “% Inhibition” value was -1% and the Z score is on record as 0.11.

Take `Cc1nc(NC(=O)[C@H](Cc2ccccc2)NC(=O)N2CCOCC2)sc1C`: the “% Inhibition” value is on record as -3% and the Z score worked out at 0.39.

With `O=C(Nc1cccc(S(=O)(=O)N2CCOCC2)c1)[C@@H]1Cc2ccccc2O1`, the “% Inhibition” value is given as 13% and the Z score is -1.65.

For `COc1ccc(C(=O)N2CC[C@H]3NC(=O)N(Cc4ccccc4)C(=O)[C@H]32)cc1`, the “% Inhibition” value is 25% and the Z score is listed as -2.88.

Take `C[C@H]1COc2ccc(CN3CCOCC3)cc2CN1C(=O)NCCc1ccccc1`: the “% Inhibition” value is given as -16% and the Z score turned out to be 1.37.

For the compound `COc1ccccc1[C@H]1CC(=O)Nc2c1c(C)nn2-c1ncnc2[nH]cnc12`, the “% Inhibition” value is reported as 11% and the Z score is recorded as -1.22.

For the compound `COc1ccc(C(=O)Nc2ccc3c(c2)nc(CN2CCCCCC2)n3C(C)C)cc1`, the “% Inhibition” value is recorded as -7% and the Z score is listed as 1.14.

With `CCN(Cc1ccncc1C)C[C@H]1CCCCO1`, the “% Inhibition” value is -10% and the Z score is given as 0.98.

For `Cc1nc(C)c(F)c(NC2CCN(S(=O)(=O)C(C)(C)C)CC2)n1`, the “% Inhibition” value is -5% and the Z score was 0.83.

On to `CC(=O)NC(C)(C)C(=O)NCc1ccc2[nH]cnc2c1`, for which the “% Inhibition” value is -10% and the Z score is 0.95.

On to `COc1ncccc1CNC(=O)C(=O)Nc1nc(C)c(C)s1`, for which the “% Inhibition” value worked out at 7% and the Z score was -1.14.

`COCCC(=O)N1CCc2c(c(-c3nc(C4CC4)no3)nn2C)C1`: the “% Inhibition” value is -2% and the Z score is 0.35.

As to `COc1cccc(-n2cc(C(=O)O)c3c2[C@H](C(C)C)CC(=O)N3)c1`, the “% Inhibition” value is -8% and the Z score is listed as 0.88.

`CCC(CC)N1C[C@]23C=C[C@H](O2)C(C(=O)N2CCc4n[nH]cc4C2)C3C1=O` (some centres not stated): the “% Inhibition” value is -7% and the Z score is reported as 1.39.

As for `COCCCNC(=O)COc1ncnc2oc(C)c(C)c12`, the “% Inhibition” value is on record as -7% and the Z score was 0.88.

For the compound `Cc1cccc(-c2nc3ccc(C(=O)N[C@@H](C)CCc4ccccc4)cc3nc2-c2cccc(C)c2)c1`, the “% Inhibition” value is reported as 5% and the Z score was -0.63.

On to `Cc1ccccc1-n1c(=O)n(Cc2ccccc2)c(=O)c2c1ncn2Cc1ccccc1`, for which the “% Inhibition” value is -9% and the Z score is 1.36.

As for `CNCC1CCCN1C(=O)C1CC1c1cccc(C(F)(F)F)c1` (configuration not stated), the “% Inhibition” value is given as -11% and the Z score amounted to 1.76.

As to `Cc1noc(C)c1CCC(=O)OC1CN(c2nc3c(F)cc(F)cc3s2)C1`, the “% Inhibition” value is recorded as -4% and the Z score came to 0.79.

Turning to `O=C(NC[C@@H](C(=O)O)c1ccc(F)cc1)c1cccc(C2CC2)c1`, the “% Inhibition” value is on record as -8% and the Z score came to 0.92.

On to `Cc1cccc(C(=O)NC2CCN([C@@H](C)c3ccncc3)CC2)c1F`, for which the “% Inhibition” value is -5% and the Z score was determined as 0.61.

In the case of `Cc1nn(C)c2cc(NC(=O)N3CCO[C@H](C4CCC4)C3)ccc12`, the “% Inhibition” value is 0% and the Z score is -0.01.

For `Cc1cc(C(=O)N[C@H]2CCN(Cc3c[nH]c(C#N)c3)C[C@@H]2O)no1`, the “% Inhibition” value is given as -11% and the Z score is 1.44.

Regarding `COc1ccc(CCN(C(=O)[C@@H]2CNC(=O)C2)C2CCCCC2)cc1OC`, the “% Inhibition” value worked out at 3% and the Z score is reported as -0.51.

Turning to `Cc1nc(-c2cc(S(=O)(=O)N3CCC[C@H](C(=O)Nc4ccc(F)cc4Cl)C3)c(C)s2)no1`, the “% Inhibition” value is on record as -16% and the Z score was 1.58.

In the case of `CCc1nnc(NC(=O)Cn2c3c(c(=O)n(C4CCCCC4)c2=O)CCC3)s1`, the “% Inhibition” value is -18% and the Z score stood at 3.15.

`COC1(OC)CC2(CN(C(=O)c3cccn3C)[C@H]2C(C)C)C1`: the “% Inhibition” value is -1% and the Z score was determined as 0.13.

As for `NC(=O)C[C@@H](CN1Cc2ccccc2C1=O)c1ccc(Cl)cc1`, the “% Inhibition” value is -3% and the Z score is given as 0.46.

For `CN1CCO[C@@H](CNS(=O)(=O)c2ccc(C3CCCCC3)cc2)C1`, the “% Inhibition” value is reported as 2% and the Z score is -0.24.

On to `CC(O)c1ccn(Cc2csc(C3CCCO3)n2)n1` (configuration not stated), for which the “% Inhibition” value was -5% and the Z score is 0.67.

For `COc1ccccc1OCCCNC(C)(C)C`, the “% Inhibition” value worked out at 0% and the Z score was 0.01.

Consider `O=C(N[C@H]1CCOC[C@@H]1O)c1ccccn1`, for which the “% Inhibition” value is recorded as -3% and the Z score is on record as 0.33.

For `Cc1ccsc1C(C)NC1CCCC1CO` (configuration not stated), the “% Inhibition” value was -15% and the Z score was 2.18.

Turning to `CCOc1cc(C#N)ccc1OCC(=O)NCc1ccc(C(=O)N2CCNC(=O)C2)cc1`, the “% Inhibition” value is -11% and the Z score was determined as 1.02.

Regarding `Cc1nc(C)c(CC(=O)NC2CCCCCCC2)c(=O)[nH]1`, the “% Inhibition” value is -14% and the Z score is reported as 1.38.

As to `CN1CC[C@H](NC(=O)c2ccncc2Cl)C1=O`, the “% Inhibition” value came out at 0% and the Z score is reported as -0.02.

Turning to `O=C(NC12CCCN(CC1)C2)c1ccc(Br)cc1F` (configuration not stated), the “% Inhibition” value is given as -11% and the Z score is given as 2.29.

As for `COc1ccc2cc1OCC(=O)N[C@@H](C)C(=O)N(C)CCCCN(C(=O)Cc1cc(F)ccc1F)CCCNC(=O)CC2`, the “% Inhibition” value is reported as -5% and the Z score is 1.

In the case of `COc1ccc(CC[C@H](C)Nc2ccc3c(c2)CCC3)cc1`, the “% Inhibition” value is -3% and the Z score was 0.48.

As to `O=C(Nc1ccc2c(c1)OC1(CCCCC1)O2)c1ccccc1F`, the “% Inhibition” value was -5% and the Z score is 0.52.

For the compound `CCOC(=O)c1cnn(Cc2csc([C@H](C)OCC)n2)c1C#N`, the “% Inhibition” value is -4% and the Z score worked out at 0.6.
